According to PubChem BioAssay AID504832 (National Center for Advancing Translational Sciences (NCATS), 2011):
The campaign covered roughly 310,000 compounds. About 18,000 (5.8%) were called active. Inconclusive results, whose numbers are uncertain, are shown with a selection of clear calls. The call rests on the fitted dose curve; in most records, active means well fitted inhibition curve with a large enough effect; inconclusive means small, poorly fitted or top-dose-only effect, or another doubt; inactive means no such curve, though single readings can be large or run the other way. Potencies of inconclusive entries are left out as doubtful fits.

assay: Primary qHTS for delayed death inhibitors of the malarial parasite plastid, 48 hour incubation; details: P. falciparum luciferase growth in erythrocytes; series mostly up to 28.7 µM; activity change, negative = inhibition: at the top concentration
Procedure, shortened: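 Read-out is firefly luciferase luminescence from an integrated reporter in P. falciparum, so falling signal marks reduced parasite growth. Infected erythrocytes were at 2% hematocrit and 0.1% parasitemia (final) in Albumax-supplemented RPMI 1640.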
On the % scale 0 is the no-effect control and ±100 the full control effect; potency means the concentration at half of the fitted maximal effect; tags describe the fitted curve by direction and shape.

SMILES | Potency | activity change, negative = inhibition
O=C(Nc1nc(-c2ccncc2)cs1)C1c2ccccc2Oc2ccccc21 | inconclusive [inhibitor, single point] | 
O=C(Nc1ccc(Nc2ccccc2)cc1)C1CC1 | inconclusive [inhibitor, single point] | 
O=C(O)CN(c1ccc(F)cc1)S(=O)(=O)c1ccc2c(c1)OCCO2 |  | inactive: 44.6%
O=C(CSc1nc2c(sc3ccccc32)c(=O)n1CCCN1CCCC1)NCc1ccccc1 | inconclusive [inhibitor, single point] | 
CCN(CC)P(=O)(Nc1ccc(C)cc1Br)c1ccc(N(C)C)cc1NC(=O)c1ccco1 (stereo unspecified) | inconclusive [inhibitor, partial curve, poor fit] | 
NC(=O)c1nsc(C(=O)N(c2ccccc2)C(C(=O)NCC2CCCO2)c2ccc3ncccc3c2)c1N (stereo unspecified) | active: 11.7 µM | 
O=C(NCC1CC1)[C@@H]1C[C@H]1[C@@H](NP(=O)(c1ccccc1)c1ccccc1)c1ccccc1 |  | inactive: -5.68%
Cc1cc(Cl)ccc1OCC(=O)OCC(=O)NC1CCS(=O)(=O)C1 (stereo unspecified) |  | inactive: 0.0859%
Cc1ccc(NC(=O)c2ccc(C)c(S(=O)(=O)N3CCCCC3)c2)nc1 | inconclusive [inhibitor, single point] | 
CC1=CC(C)(C)Nc2ccc(Cc3ccc4c(c3)C(C)=CC(C)(C)N4)cc21 | inconclusive [inhibitor, single point] | 
CCN(CC)Cc1cc2ccccc2c2c1COC2 |  | inactive: 9.59%
O=c1c([N+](=O)[O-])cccn1Cc1ccccc1Cl | inconclusive [inhibitor, single point] | 
O=C1CC(NNC(=O)c2ccccc2)C(=O)N1 (stereo unspecified) | inconclusive [inhibitor, partial curve, poor fit] | 
CCN1CCN(Cc2ccc(NC(=O)c3cc(NC(=O)c4cc(-c5ccc(OC)cc5)n[nH]4)cc(OC)c3)cc2C(F)(F)F)CC1 | active: 0.117 µM | 
CCSc1nc(NCCN(C)C)c2c3c(sc2n1)COC(C)(CC)C3 (stereo unspecified) | active: 3.29 µM | 
CCN(CC)S(=O)(=O)c1cccc(C(=O)Nc2cc(C)nn2-c2ccccc2)c1 | inconclusive [inhibitor, partial curve] | 
COc1ccc(Nc2nnc(-c3ccc(O)cc3)c3ccccc23)cc1 | inconclusive [inhibitor, partial curve, poor fit] | 
Cc1cc(NCCN2CCOCC2)n2nc(C)c(-c3ccc(Cl)cc3)c2n1 |  | inactive: 0%
C/C=C\C(=O)Nc1cccc(C2=NOC3(C2)C[C@@H](C(N)=O)N(C(=O)CC(c2ccccc2)c2ccccc2)C3)c1 (stereo partly specified) | active: 10.4 µM | 
OCCC1CN(Cc2c(O)ccc3ccccc23)CCN1CCc1ccccc1 (stereo unspecified) | inconclusive [inhibitor, partial curve, poor fit] | 
CCOc1ccccc1CN1CCCC(C(=O)c2cc(F)ccc2F)C1 (stereo unspecified) | inconclusive [inhibitor, partial curve, poor fit] | 
COc1ccc(C(C(=O)NCC2CCCO2)N(C(=O)Cn2nnc3ccccc32)c2ccc(NC(C)=O)cc2)cc1OC (stereo unspecified) | inconclusive [inhibitor, single point] | 

SMILES | Potency | activity change, negative = inhibition
CCCN1C2CCCC1CC(NC(=O)c1cccc(OC)c1)C2 (stereo unspecified) | inconclusive [inhibitor, partial curve, poor fit] | 
COc1cc(/C=N/Nc2nc3ccccc3[nH]2)cc(Br)c1OCC(=O)N(C)C | active: 0.465 µM | 
CCc1ccc(-c2cc3c(=O)n(CC(=O)NCCCN4CCC(Cc5ccccc5)CC4)nc(C)n3n2)cc1 | inconclusive [inhibitor, partial curve, poor fit] | 
Cc1ccc(C)c(S(=O)(=O)Nc2cc3c4c(c2)CCN4C(=O)CC3)c1 | inconclusive [inhibitor, single point] | 
CC(=O)c1ccc(NC(=O)CCCCCn2nnc3ccccc3c2=O)cc1 | inconclusive [inhibitor, partial curve] | 
CC(=O)c1ccc(N2CCN(C(=O)COc3ccccc3F)CC2)c(F)c1 | inconclusive [inhibitor, partial curve, poor fit] | 
COc1ccc(Nc2c3c(nc4ccccc24)CCC3)c(OC)c1 | inconclusive [inhibitor, single point] | 
CCCCn1c(SCc2ccccn2)nc2c1c(=O)n(C)c(=O)n2C | inconclusive [inhibitor, partial curve] | 
Cc1csc(SCCN2C(=O)c3ccccc3C2=O)n1 |  | inactive: 42.8%
COC(=O)Cn1c(CN(Cc2ccccc2)Cc2ccccc2)nc2c1c(=O)[nH]c(=O)n2C | inconclusive [inhibitor, full curve, poor fit] | 
CC1CCN(C(=O)c2ccc(N3C(=O)C4CCC(C)CC4C3=O)cc2)CC1 (stereo unspecified) | inconclusive [inhibitor, single point] | 
Cc1ccc2[nH]c(C(=O)N/N=C/c3ccccc3O)c(C)c2c1 | active: 2.33 µM | 
O=C(O)CCc1nc2cc(C(F)(F)F)ccc2n(Cc2ccccc2)c1=O |  | inactive: -11.7%
Cc1ccc2cc(CN(Cc3cccs3)Cc3nnnn3C(C)(C)C)c3nnnn3c2c1 |  | inactive: -19.7%
O=C(Cc1c[nH]c2ccccc12)NNC(=O)c1ccccc1 |  | inactive: 11%
Cc1cc(CN(C)Cc2c(C(=O)N3CCCCCCC3)nc3ccc(Cl)cn23)n[nH]1 | inconclusive [inhibitor, single point] | 
COc1ccc(C2CC(c3cccs3)=NN2C(=O)CCl)cc1OC (stereo unspecified) | inconclusive [inhibitor, full curve] | 
CCOC(=O)N1CCc2c(sc(NC(=O)Cc3ccccc3)c2C(=O)c2ccc(OC)cc2)C1 | active: 5.22 µM | 
COc1ccc(N=Cc2cc3c(cc2O)OC(N)=C(C#N)C3c2ccccc2)cc1 (stereo unspecified) |  | inactive: 17.4%
CSc1ccccc1NC(=O)CSCc1ccc(C)cc1 | inconclusive [inhibitor, full curve, poor fit] | 
Cc1sc2nc(CN(C(=O)NC3CCCCC3)C3CCCC3)[nH]c(=O)c2c1C | inconclusive [inhibitor, partial curve, poor fit] | 
Cc1cc(C)n(CC(C)NCc2cn[nH]c2-c2cccc3ccccc23)n1 (stereo unspecified) | inconclusive [inhibitor, partial curve, poor fit] | 

SMILES | Potency | activity change, negative = inhibition
O=C(NCCOc1ccccc1Cl)C(=O)NCCOc1ccccc1Cl |  | inactive: -2.92% [at 5.75 µM]
CCCC(=O)C1=C(N2CCCC2)CC(C)(C)C(C(=O)OC)C1=O (stereo unspecified) | inconclusive [inhibitor, full curve] | 
NC(=O)C(=O)N/N=C/c1c2ccccc2cc2ccccc12 |  | inactive: 12.5%
COc1ccc(-c2nc3cnccn3c2NCc2ccccc2)cc1SC1CCCCC1 | inconclusive [inhibitor, partial curve, poor fit] | 
S=C(Nc1ccccc1)N1CCn2c1nc1ccccc12 |  | inactive: 5.1%
CCNc1nc(NCC)nc(N(C)/N=C/c2ccco2)n1 | inconclusive [inhibitor, single point] | 
CCCn1c(=O)c2ccccc2n2c(SCC(=O)c3ccccc3)nnc12 | inconclusive [inhibitor, single point] | 
Cc1cc(C)c(S(=O)(=O)N2CCN(C(=O)c3cc(=O)[nH]c4ccccc34)CC2)c(C)c1 | active: 11.7 µM | 
Clc1ccc(-c2nc(NCCN3CCOCC3)c3ccccc3n2)cc1 | inconclusive [inhibitor, partial curve, poor fit] | 
CN(C)S(=O)(=O)c1ccc(N2CCCC2)c(C(=O)Nc2ccccc2OC(F)F)c1 | inconclusive [inhibitor, partial curve] | 
O=C(CCNS(=O)(=O)c1ccc(OC(F)(F)F)cc1)N1CCN(C/C=C/c2ccccc2)CC1 | inconclusive [inhibitor, single point] | 
c1ccc(Cn2c(CN3CCCC3)nc3ccccc32)cc1 | inconclusive [inhibitor, single point] | 
O=C(CCCCn1c(=O)c2ccccc2n(CC(=O)Nc2cccc(F)c2)c1=O)NCc1ccco1 | inconclusive [inhibitor, partial curve, poor fit] | 
CCOc1ccc(NC(=O)CS(=O)CC(=O)Nc2cccnc2)cc1 (stereo unspecified) |  | inactive: 11.6%
O=C(CCCn1c(=O)c2ccccc2n(CC(=O)N2CCN(c3ccccc3)CC2)c1=O)NCc1ccco1 | inconclusive [inhibitor, partial curve, poor fit] | 
CC(=O)Nc1ccc(N/C(N)=N/c2nc(C)cc(C)n2)cc1 | inconclusive [inhibitor, partial curve] | 
NC1=NC2(CCCCC2)N=C(Nc2ccc(F)cc2F)N1 | inconclusive [inhibitor, full curve] | 
COc1ccc(SCC(=O)c2cc(C)c(OC(=S)N(C)C)c(C)c2)cc1 | inconclusive [inhibitor, single point] | 
CCOC(=O)/C(C(N)=NCc1ccco1)=C(/O)c1ccccc1 | inconclusive [inhibitor, partial curve, poor fit] | 
Cc1ccc(C)c(NC(=O)CSc2ccc(-c3cccs3)nn2)c1 |  | inactive: -8.13%
COc1ccccc1C(=O)NCc1nnc(SC(C)C(=O)Nc2nccs2)n1C (stereo unspecified) |  | inactive: 1.13%
CC(C)C1N(S(=O)(=O)c2ccccc2)CCN1S(=O)(=O)c1ccccc1 | inconclusive [inhibitor, partial curve] | 
